Experimental data from the supplement of paper PMC10369915.
This is one part of the list. Rule as the data show it: active = 3.2 or more and inactive = the rest. Only a few entries rise above the background.

B1: ABL1_Y167_R166K_YF (peptide)
chain: SISLKYEGRVF
B2: ACO2_Y71_L74V (peptide)
chain: SEKIVYGHVDD
B3: ACADSB_Y373_E376G_YF (peptide)
chain: SMAKFYASGIA
B4: ACP1_Y133_S137F (peptide)
chain: IEDPYYGNDFD
B5: ABI1_Y333 (peptide)
chain: TSSGGYRRTPS
B6: ACADSB_Y372_YF (peptide)
chain: ASMAKYFASEI
B7: ACAN_Y100_D102E (peptide)
chain: RVNSAYQEKVS
B8: ACAD9_Y325 (peptide)
chain: EMTAEYACTRK
B9: ACP1_Y132 (peptide)
chain: IIEDPYYGNDS
B10: ACADM_Y73 (peptide)
chain: DKTGEYPVPLI
B11: ACE_Y151 (peptide)
chain: NMSRIYSTAKV
B12: ABCD1_Y337 (peptide)
chain: QFLMKYVWSAS
B13: ACAT1_Y161_N158D (peptide)
chain: MSDVPYVMNRG
B14: ACOXL_Y260 (peptide)
chain: TIAIRYSHSRR
B15: ACADM_Y352_Y352C (peptide)
chain: GRRNTCYASIA
B16: ACP1_Y132_YF (peptide)
chain: IIEDPYFGNDS
B17: ACAT1_Y331 (peptide)
chain: PIAPVYAASMV
B18: ABCD1_Y337_K336M (peptide)
chain: QFLMMYVWSAS
B19: ACADSB_Y373_YF (peptide)
chain: SMAKFYASEIA

molecular target: SHP2 C-SH2 domain E139D; experiment: enrichment score (SH2-bound / input frequency) (ratio); bacterial display of known human phosphotyrosine sites (pTyr-Var adds point mutants) read by sequencing; higher = stronger binding; tyrosines were phosphorylated by kinases first; conditions: peptide library: pTyr-Var
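Also: displayed peptides selected on beads carrying the immobilized SH2 domain, with library peptides lacking any tyrosine serving as negative controls.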

Enrichment score, inactive:
B1 1.27
B2 0.821
B3 0.499
B4 0.615
B5 0.245
B6 0.664
B7 0.737
B8 0.571
B9 0.695
B10 0.774
B11 0.781
B12 1.62
B13 0.847
B14 0.198
B15 0.347
B16 0.929
B17 0.93
B18 1.99
B19 0.807

molecular target: SHP2 C-SH2 domain wild-type; experiment: as above; conditions: peptide library: pTyr-Var

Enrichment score, inactive:
B1 1.29
B2 0.936
B3 0.726
B4 0.679
B5 0.24
B6 0.551
B7 0.814
B8 0.499
B9 0.647
B10 0.658
B11 0.898
B12 1.76
B13 0.762
B14 0.165
B15 0.774
B16 0.933
B17 0.762
B18 2.27
B19 0.984

molecular target: SHP2 N-SH2 domain L43F; experiment: as above; conditions: peptide library: pTyr-Var

Enrichment score, inactive:
B1 1.17
B2 0.685
B3 0.499
B4 0.658
B5 0.197
B6 0.63
B7 0.756
B8 0.568
B9 0.787
B10 0.722
B11 0.482
B12 1.43
B13 0.587
B14 0.196
B15 0.383
B16 0.941
B17 0.719
B18 1.67
B19 1.08

molecular target: SHP2 N-SH2 domain T42A; experiment: as above; conditions: peptide library: pTyr-Var

Enrichment score, inactive:
B1 1.29
B2 0.624
B3 0.502
B4 0.636
B5 0.247
B6 0.78
B7 0.997
B8 0.719
B9 0.687
B10 0.54
B11 0.592
B12 1.35
B13 0.694
B14 0.295
B15 0.471
B16 0.786
B17 0.655
B18 1.79
B19 0.731

molecular target: SHP2 N-SH2 domain T52S; experiment: as above; conditions: peptide library: pTyr-Var

Enrichment score, inactive:
B1 1.13
B2 0.679
B3 0.807
B4 0.72
B5 0.28
B6 0.649
B7 1.02
B8 1.32
B9 0.646
B10 0.688
B11 0.636
B12 1.56
B13 0.766
B14 0.219
B15 0.433
B16 1.58
B17 0.803
B18 2.09
B19 0.703

molecular target: SHP2 N-SH2 domain wild-type; experiment: as above; conditions: peptide library: pTyr-Var

Enrichment score, inactive:
B1 1.28
B2 0.687
B3 0.726
B4 0.72
B5 0.252
B6 0.799
B7 0.955
B8 0.65
B9 0.731
B10 0.776
B11 0.785
B12 1.97
B13 0.883
B14 0.244
B15 0.362
B16 0.975
B17 0.763
B18 2.09
B19 0.928
